{"source": "PubChem BioAssay AID485294", "about": "(National Center for Advancing Translational Sciences (NCATS), 2010)", "note": "Hit rate of the full screen: of about 370,000 compounds, about 150 (0.041%) were called active. The shares of active, inactive and inconclusive entries below differ from those in the screen. The call rests on the fitted dose curve; in most records, active means well fitted inhibition curve with a large enough effect; inconclusive means small, poorly fitted or top-dose-only effect; inactive means flat fitted curve, though single readings scatter. Potencies of inconclusive entries are left out as doubtful fits. Potency means the concentration at half of the fitted maximal effect; tags describe the fitted curve by direction and shape.", "data": [{"target": "Beta-lactamase (Escherichia coli (strain K12)) (UniProt P00811)", "sequence (P00811 whole entry, looked up)": "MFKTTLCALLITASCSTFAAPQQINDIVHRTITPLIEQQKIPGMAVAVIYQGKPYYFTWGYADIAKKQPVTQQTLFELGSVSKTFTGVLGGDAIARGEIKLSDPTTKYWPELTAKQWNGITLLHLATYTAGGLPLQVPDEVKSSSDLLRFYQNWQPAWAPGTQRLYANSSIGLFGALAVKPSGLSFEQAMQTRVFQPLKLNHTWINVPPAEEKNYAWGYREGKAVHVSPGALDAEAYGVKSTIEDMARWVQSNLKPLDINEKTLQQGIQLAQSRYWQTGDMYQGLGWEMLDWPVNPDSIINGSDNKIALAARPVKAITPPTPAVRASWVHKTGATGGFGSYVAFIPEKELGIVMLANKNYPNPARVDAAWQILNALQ", "assay": "qHTS Inhibitors of AmpC Beta-Lactamase (assay with detergent); further: nearly all actives have a fitted effect of over 25% in size;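 on activity change, negative = inhibition: 0% = no-compound wells and -100% = no-enzyme wells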", "conditions": "AmpC hydrolysis of nitrocefin, absorbance 480 nm, 0.01% Triton; activity change, negative = inhibition: at 114 µM (top of the series)", "outline": "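20 mM phosphate pH 7.0 + 0.01% (detergent screen) or 0.0001% Triton X-100; 5.3 nM AmpC reagent; cpd preinc 15 min RT; nitrocefin (800 uM stock) to start; A480 q20 s × 4 min; Activity was normalised to no-enzyme and no-compound control wells.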", "values": [{"smiles": "NS(=O)(=O)c1ccc(-c2ccc(/C=N/NC(=O)c3ccc([N+](=O)[O-])cc3)o2)cc1", "Potency": "inactive"}, {"smiles": "Clc1ccccc1-c1nc(-c2cccnc2)no1", "Potency": "inactive"}, {"smiles": "CCOC(=O)C1=C(C)N=c2s/c(=C\\c3ccncc3)c(=O)n2C1c1ccc2c(c1)OCO2", "note": "(configuration not stated)", "Potency": "inconclusive [inhibitor, full curve, poor fit]"}, {"smiles": "CCNC(=S)Nc1ccc(OCc2nc3ccccc3s2)cc1", "Potency": "inconclusive [inhibitor, partial curve, poor fit]"}, {"smiles": "CCN(CC)C(=O)C1CCC(CNS(=O)(=O)c2cccc3cccnc23)CC1", "note": "(configuration not stated)", "Potency": "inconclusive [inhibitor, full curve, poor fit]"}, {"smiles": "CC1CCC2C(=O)N(c3cccc(OS(=O)(=O)c4ccccc4)c3)C(=O)C2C1", "note": "(configuration not stated)", "Potency": "inconclusive [inhibitor, full curve, poor fit]"}, {"smiles": "O=C(NCCCN1CCCC1=O)c1cccc(NS(=O)(=O)c2ccccc2)c1", "Potency": "inconclusive [inhibitor, partial curve, poor fit]"}, {"smiles": "CC12C(=O)N(c3ccccn3)C(=O)C1C1C=CC2C1", "note": "(configuration not stated)", "Potency": "inactive"}, {"smiles": "Cc1ccc(N2CC(C(=O)Nc3cccc(F)c3)CC2=O)cc1", "note": "(configuration not stated)", "Potency": "inactive"}, {"smiles": "COc1ccc(N2CCN(c3oc(COc4ccc(Cl)cc4Cl)nc3C#N)CC2)cc1", "Potency": "inconclusive [inhibitor, partial curve, poor fit]"}, {"smiles": "CCOC(=O)/C(C#N)=C/c1cc2ccccc2nc1N1CCOCC1", "Potency": "inconclusive [inhibitor, partial curve, poor fit]"}, {"smiles": "O=C(CN1CCN(Cc2ccccc2)CC1)N1CCCc2ccccc21", "Potency": "inconclusive [inhibitor, full curve, poor fit]"}, {"smiles": "CN(Cc1cn(C)nc1-c1ccc(Oc2ccccc2)cc1)Cc1cnc2ccccn12", "Potency": "inactive"}, {"smiles": "CCOC(=O)N1CCN(Cc2cccs2)CC1", "Potency": "inconclusive [inhibitor, full curve]"}, {"smiles": "CC(=O)c1ccc(OCc2ncc(C(F)(F)F)cc2Cl)cc1", "Potency": "inactive"}, {"smiles": "CC(=O)c1ccccc1NC(=O)COC(=O)CSCC(=O)Nc1cc(C)on1", "Potency": "inconclusive [inhibitor, full curve, poor fit]"}, {"smiles": "CCN=C1NN=C(c2cc(C)n(Cc3ccco3)c2C)CS1", "Potency": "inconclusive [inhibitor, full curve, poor fit]"}, {"smiles": "Cc1c(C#N)c2ccccc2n1CC(=O)N1CCc2ccccc2C1", "Potency": "inconclusive [inhibitor, full curve]"}, {"smiles": "CC(=O)N1CC(C)c2scc(C)[n+]2-c2ccccc21", "note": "(configuration not stated)", "Potency": "inconclusive [inhibitor, full curve, poor fit]"}, {"smiles": "O=C(NCc1ccccc1)NC1(C(=O)N2CCN(c3ncccn3)CC2)CCCCC1", "Potency": "inconclusive [inhibitor, partial curve]"}, {"smiles": "Cn1c(N2CCN(c3ccccn3)CC2)nc2c1c(=O)n(Cc1ccc(Cl)cc1)c(=O)n2C", "Potency": "inconclusive [inhibitor, full curve, poor fit]"}, {"smiles": "CCCCCn1nc(-c2ccccc2)c2nc3ccccc3nc21", "Potency": "inconclusive [inhibitor, partial curve, poor fit]"}, {"smiles": "CCC(C)C(=O)N1CCc2cc(-c3csc(N)n3)ccc21", "note": "(configuration not stated)", "Potency": "inconclusive [inhibitor, full curve, poor fit]"}, {"smiles": "O=C(Nc1ccccc1)Nc1ccc2ccccc2n1", "Potency": "inconclusive [inhibitor, full curve, poor fit]"}, {"smiles": "CCN(CC)CCCN1CC(O)=C(c2nc3ccccc3s2)C1=N", "Potency": "inactive"}, {"smiles": "C/C(=N\\NC(=O)Cc1ccc(O)cc1)c1cccnc1", "Potency": "inconclusive [inhibitor, full curve, poor fit]"}, {"smiles": "CCOC(=O)Nc1ccc2c(c1)N(C(=O)OCCN(C)C)c1ccccc1CC2", "Potency": "inconclusive [inhibitor, full curve, poor fit]"}, {"smiles": "O=c1cc(N2CCc3ccccc32)[nH]c(=O)n1-c1ccc(Br)cc1", "Potency": "inconclusive [inhibitor, full curve, poor fit]"}, {"smiles": "CCOC(=O)C1=C(O)/C(=C\\c2cc(C)n(-c3ccccc3F)c2C)N=C1C", "Potency": "inconclusive [inhibitor, single point]"}, {"smiles": "COc1ccc2c(=O)c3ccccc3oc2c1", "Potency": "inconclusive [inhibitor, full curve]"}, {"smiles": "Cc1cc([N+](=O)[O-])ccc1NC(=O)C(C)NC1CCCCC1", "note": "(configuration not stated)", "Potency": "inactive"}, {"smiles": "O=C(CNC(=O)c1ccco1)OCc1ccc(C(=O)Oc2ccccc2)cc1", "activity change, negative = inhibition": "inconclusive: -17.3% [inhibitor]"}, {"smiles": "O=C(NCC1CCCO1)C(=O)NCC1CCCN1S(=O)(=O)c1ccccc1", "note": "(configuration not stated)", "Potency": "inconclusive [inhibitor, full curve, poor fit]"}, {"smiles": "Cc1ccc(C(=O)NCC(=O)OCC(=O)NC2CCS(=O)(=O)C2)cc1C", "note": "(configuration not stated)", "Potency": "inconclusive [inhibitor, full curve]"}, {"smiles": "COc1ccc(CN(C)C(=O)Cc2ccc(OC)c(S(=O)(=O)N3CCOCC3)c2)cc1OC", "Potency": "inactive"}, {"smiles": "Cc1ccc2c3c(cccc13)-c1ccccc1C2=O", "Potency": "inconclusive [inhibitor, full curve, poor fit]"}, {"smiles": "CCCCCCCCNc1ncnc2ccccc12", "Potency": "inactive"}, {"smiles": "COc1ccc2[nH]c3c(N4CCc5ccccc5C4)ncnc3c2c1", "Potency": "inactive"}, {"smiles": "Cc1cc(C)c(C#N)c(SCC(=O)Nc2nnc(-c3ccccc3)s2)n1", "Potency": "inconclusive [inhibitor, full curve, poor fit]"}, {"smiles": "COc1cc(C(=O)Nc2ccc3c(c2)nc(C)n3C)cc(OC)c1OC", "Potency": "inconclusive [inhibitor, full curve, poor fit]"}, {"smiles": "CCOc1ccc(NC(=O)CSc2nc3c(oc4ccccc43)c(=O)n2-c2cc(C)cc(C)c2)cc1", "Potency": "inactive"}, {"smiles": "CCC1(C)Cc2c(sc3nc(SCC(=O)O)[nH]c(=O)c23)CO1", "note": "(configuration not stated)", "Potency": "inactive"}, {"smiles": "CN(C)CCCNCC(=O)c1c(-c2ccccc2)n(C)c2ccccc12", "Potency": "inconclusive [inhibitor, full curve, poor fit]"}, {"smiles": "CCn1c(=O)cc(SCC(=O)Nc2cccnc2)c2ccccc21", "Potency": "inconclusive [inhibitor, full curve, poor fit]"}, {"smiles": "CCCOc1ccc(/C(O)=C2/C(=O)C(=O)N(CCN(C)C)C2c2ccc(OC)c(OC)c2)cc1", "note": "(configuration not stated)", "Potency": "inconclusive [inhibitor, single point]"}, {"smiles": "CCOC(=O)c1nc(S(C)(=O)=O)ncc1Cl", "Potency": "inconclusive [inhibitor, partial curve, poor fit]"}, {"smiles": "COc1ccc(Cc2noc(CN(C)Cc3ccc(-n4cccn4)cc3)n2)cc1OC", "Potency": "inactive"}, {"smiles": "COc1ccc(NC(=O)CSC2=Nc3ccccc3C3=NC(CCC(=O)NCc4cccs4)C(=O)N23)cc1", "note": "(configuration not stated)", "Potency": "inactive"}, {"smiles": "O=C(O)c1ccc(NC2=C(Cl)C(=O)c3ccccc3C2=O)cc1", "Potency": "inactive"}, {"smiles": "O=C(Nc1cccc(S(=O)(=O)Nc2ccc(Cl)cc2)c1)c1cc2c(s1)CCCC2", "Potency": "inactive"}, {"smiles": "COc1ccccc1N1CCN(C(=O)c2cc(-c3ccc(C)cc3)on2)CC1", "Potency": "inconclusive [inhibitor, single point]"}, {"smiles": "COCCCNCCOCCOc1ccc(C)cc1Br", "Potency": "inconclusive [inhibitor, single point]"}, {"smiles": "COc1cc(CNc2ccc(N3CCN(C(C)=O)CC3)cc2)ccc1OCc1ccc(F)cc1", "Potency": "inactive"}, {"smiles": "CC(=O)Nc1ccc(NC(=O)c2ccc(COc3ccc(C)cc3)o2)cc1", "Potency": "inconclusive [inhibitor, partial curve, poor fit]"}, {"smiles": "O=C(CNC(=O)c1ccco1)NC1CCCCCC1", "Potency": "inconclusive [inhibitor, partial curve, poor fit]"}, {"smiles": "COc1c(Cl)cc(-c2noc(C)c2C(=O)NCc2ccc3c(c2)OCO3)cc1Cl", "Potency": "inconclusive [inhibitor, full curve]"}, {"smiles": "Cc1cc(Cl)ccc1N(CC(=O)NCc1ccccc1)S(C)(=O)=O", "Potency": "inactive"}, {"smiles": "O=C(O)C1Nc2c(O)cc(Cl)c([N+](=O)[O-])c2C2C=CCC12", "note": "(configuration not stated)", "Potency": "active: 39.8 µM"}, {"smiles": "O=c1cc(CNC2CCCCC2)c2ccccc2[nH]1", "Potency": "inconclusive [inhibitor, full curve, poor fit]"}, {"smiles": "O=C(NCc1ccc(Cl)cc1)C1CCC(CNc2c(N3CCCCC3)c(=O)c2=O)CC1", "note": "(configuration not stated)", "Potency": "inconclusive [inhibitor, full curve, poor fit]"}, {"smiles": "CCOc1ccc(Cn2nnc(C(=O)Nc3cccc(SC)c3)c2N)cc1", "Potency": "inconclusive [inhibitor, single point]"}, {"smiles": "COc1cccc2sc3ccc(NCCC4CCCN4C)cc3c(=O)c12", "note": "(configuration not stated)", "Potency": "inconclusive [inhibitor, partial curve, poor fit]"}, {"smiles": "C=CCn1c(CSc2nc3ccccc3s2)nnc1SCC(=O)NCCN1CCOCC1", "Potency": "inconclusive [inhibitor, full curve, poor fit]"}, {"smiles": "Cc1cc2nn(-c3ccccc3)nc2cc1NC(=O)COc1ccc(Cl)cc1", "Potency": "inactive"}, {"smiles": "O=C(COC(=O)CSc1ccc([N+](=O)[O-])cc1)NC1CCCCCCC1", "Potency": "inconclusive [inhibitor, full curve, poor fit]"}, {"smiles": "CCN(CC(=O)NCc1cccs1)C(=O)c1cc(S(=O)(=O)N2CCCCC2)ccc1Cl", "Potency": "inconclusive [inhibitor, full curve, poor fit]"}, {"smiles": "COc1ccccc1CNC(=O)CCC(=O)n1ncc2cc(C)ccc21", "Potency": "inconclusive [inhibitor, partial curve, poor fit]"}]}]}
